In the antibiotic and cytotoxicity screens of Wong et al. (2023):
Some of the results follow.

Tested on: HSkMC (human skeletal muscle cells)
Test: cytotoxicity call (relative viability < 0.9)
Details: 10 µM

| Compound | cytotoxicity call |
| --- | --- |
| C[C@H](CO)N1C[C@H](C)[C@@H](CN(C)Cc2ccccc2)OCCCC[C@H](C)Oc2ccc(NC(=O)c3ccccc3)cc2C1=O | inactive |
| C[C@@H]1CN([C@H](C)CO)C(=O)c2cc(NC(=O)C3CCCCC3)ccc2O[C@@H](C)CCCCO[C@H]1CN(C)C(=O)C1CCCCC1 | inactive |
| CS(=O)(=O)N1C[C@@H]2COC[C@@]2(CN2CCOCC2)C1 | inactive |
| CC(C)NC(=O)Nc1ccc2c(c1)C(=O)N([C@H](C)CO)C[C@@H](C)[C@H](CN(C)S(=O)(=O)c1cn(C)cn1)OCCCC[C@@H](C)O2 | inactive |
| CN(C)C(=O)C[C@H]1C=C[C@@H](NC(=O)C2CC2)[C@@H](CO)O1 | inactive |
| C[C@@H]1CN([C@@H](C)CO)C(=O)c2cc(NS(=O)(=O)c3ccc(Cl)cc3)ccc2O[C@@H](C)CCCCO[C@@H]1CN(C)CC1CCCCC1 | inactive |
| C[C@H](NC(=O)N(C)C[C@@H]1OCc2ccccc2-c2ccccc2C(=O)N([C@@H](C)CO)C[C@@H]1C)c1ccccc1 | inactive |
| C[C@H](CO)N1C[C@H](C)[C@H](CN(C)S(C)(=O)=O)OCCCC[C@H](C)Oc2ccc(NC(=O)Nc3cccc4ccccc34)cc2C1=O | inactive |
| CN(C)CC(=O)N[C@@H]1CC[C@H](CC(=O)NCCN2CCCCC2)O[C@@H]1CO | inactive |
| C[C@H](CO)N1C[C@H](C)[C@H](CN(C)S(=O)(=O)c2ccccc2)Oc2ncc(-c3ccc(F)cc3)cc2C1=O | inactive |
| CO[C@@H]1CN(C)C(=O)c2cc(NS(C)(=O)=O)ccc2OC[C@H](C)N(C(=O)CN(C)C)C[C@H]1C | inactive |
| CCOc1ccc2nc(C34CC5CC(CC(C5)C3)C4)ccc2c1 | inactive |
